{"source": "paper PMC4336329", "about": "(PLoS ONE, 2015)", "note": "The campaign covered roughly 310,000 compounds. About 14,000 (4.5%) showed an effect of 50% or more. Effects have a minus sign here. This is one part of the list.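 Note: peak tail current of the secondary pulse compared with the same well before compound.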"}
{"molecular_target": "human ether-à-go-go-related gene (hERG) potassium channel (human, UniProt Q12809)", "sequence (Q12809 whole entry, looked up)": "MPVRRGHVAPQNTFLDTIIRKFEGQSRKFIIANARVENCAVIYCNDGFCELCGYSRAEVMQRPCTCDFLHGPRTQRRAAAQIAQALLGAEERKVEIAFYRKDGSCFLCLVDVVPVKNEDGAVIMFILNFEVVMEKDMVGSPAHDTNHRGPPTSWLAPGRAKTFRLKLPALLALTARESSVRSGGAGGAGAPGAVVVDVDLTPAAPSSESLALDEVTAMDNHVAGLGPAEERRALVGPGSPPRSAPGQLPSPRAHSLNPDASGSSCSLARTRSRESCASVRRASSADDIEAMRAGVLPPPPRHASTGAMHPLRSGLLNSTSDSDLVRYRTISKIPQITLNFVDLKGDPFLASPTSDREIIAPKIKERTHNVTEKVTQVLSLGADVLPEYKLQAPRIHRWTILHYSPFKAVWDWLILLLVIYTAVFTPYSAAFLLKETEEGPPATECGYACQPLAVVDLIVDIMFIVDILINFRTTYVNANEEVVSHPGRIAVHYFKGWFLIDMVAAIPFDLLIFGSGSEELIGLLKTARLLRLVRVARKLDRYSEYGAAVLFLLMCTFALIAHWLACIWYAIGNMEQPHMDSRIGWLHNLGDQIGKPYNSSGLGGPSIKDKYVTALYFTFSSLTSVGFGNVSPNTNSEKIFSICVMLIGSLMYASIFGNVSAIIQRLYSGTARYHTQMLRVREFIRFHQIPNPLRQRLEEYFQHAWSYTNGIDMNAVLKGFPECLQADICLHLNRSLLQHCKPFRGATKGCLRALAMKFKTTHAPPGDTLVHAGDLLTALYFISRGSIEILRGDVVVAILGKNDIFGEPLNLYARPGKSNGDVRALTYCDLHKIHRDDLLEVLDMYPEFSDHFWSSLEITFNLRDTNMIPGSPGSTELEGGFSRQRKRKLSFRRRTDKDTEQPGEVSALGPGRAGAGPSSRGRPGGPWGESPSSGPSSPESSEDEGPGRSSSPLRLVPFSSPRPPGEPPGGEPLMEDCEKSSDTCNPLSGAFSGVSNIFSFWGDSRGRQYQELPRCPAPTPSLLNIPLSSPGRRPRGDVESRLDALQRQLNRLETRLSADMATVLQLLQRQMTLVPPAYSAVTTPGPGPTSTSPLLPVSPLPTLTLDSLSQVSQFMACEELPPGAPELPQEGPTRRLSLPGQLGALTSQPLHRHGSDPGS", "experiment": "primary screen, population patch clamp on CHO cells stably expressing hERG", "procedure": "Briefly, Chinese hamster ovary (CHO) cells stably expressing the hERG channel were dislodged from tissue culture flasks and dispensed into PPC plates. […] During the recording, background leak currents were estimated by a 100 ms step to -80 mV from an initial holding potential of -70 mV and subtracted from the subsequent current measurement. The campaign was conducted in two phases using slight differences in recording protocol. In the first phase, the initial voltage pulse used a 100 ms step to -30 mV from a holding potential of -70 mV, a 2 s conditioning step to +25 mV, and a 2 s test step to -30 mV. During the second phase of the screen, the potential during the conditioning step was raised to +45 mV. In both phases of the campaign, a secondary voltage pulse was applied using the same parameters as the second phase initial pulse. The initial and secondary pulses were applied in the absence of compound, and upon application of 1 μM and 10 μM test concentrations. […]", "units": {"hERG current change (%, negative = inhibition) at 10uM": "%"}}
{"smiles": "c1ccc(NCCCNc2ccccc2)cc1", "hERG current change (%, negative = inhibition) at 10uM": 0.426}
{"smiles": "CCCn1c2ccccc2c2nnc(SCC(=O)Nc3ncccn3)nc21", "hERG current change (%, negative = inhibition) at 10uM": -17.4}
{"smiles": "O=C(NC1CCCCC1)C1CC(=O)N(CCc2ccc(F)cc2)C1", "note": "(stereo not drawn)", "hERG current change (%, negative = inhibition) at 10uM": -11.3}
{"smiles": "C=CCn1c(=S)[nH]c2ccc(Br)cc2c1=O", "hERG current change (%, negative = inhibition) at 10uM": 8.98}
{"smiles": "COC(=O)c1ccc(N2C(=O)CC(Sc3n[nH]c(C)n3)C2=O)cc1", "note": "(stereo not drawn)", "hERG current change (%, negative = inhibition) at 10uM": -2.31}
{"smiles": "CCC/C=N/O", "hERG current change (%, negative = inhibition) at 10uM": 13.1}
{"smiles": "CC/C(=N\\NC(=O)c1cc(C)nc2ccccc12)c1ccc(C)s1", "hERG current change (%, negative = inhibition) at 10uM": -9.3}
{"smiles": "NS(=O)(=O)c1ccc(CCNC(=O)C2CC(=O)N(Cc3ccccc3Cl)C2)cc1", "note": "(stereo not drawn)", "hERG current change (%, negative = inhibition) at 10uM": 4.97}
{"smiles": "CCn1c(CC(=O)Nc2ccccc2F)nnc1SCC(=O)N1CCN(c2ccccc2)CC1", "hERG current change (%, negative = inhibition) at 10uM": 1.15}
{"smiles": "Fc1cccc(Cn2ccc(-c3ccc4c(c3)OCO4)n2)c1", "hERG current change (%, negative = inhibition) at 10uM": -5.65}
{"smiles": "O=C(NCCCc1ccccc1)Nc1ccccc1", "hERG current change (%, negative = inhibition) at 10uM": -4.32}
{"smiles": "[S-]C(=Nc1ccc(Cl)cc1)N[n+]1ccccc1", "hERG current change (%, negative = inhibition) at 10uM": 1.12}
{"smiles": "CC(C)CN(c1ccccc1)S(=O)(=O)c1nnc(NC(=O)c2ccco2)s1", "hERG current change (%, negative = inhibition) at 10uM": 7.79}
{"smiles": "O=C(Nc1sc2c(c1C(=O)O)CCCC2)c1ccc(Cl)cc1", "hERG current change (%, negative = inhibition) at 10uM": 41.9}
{"smiles": "COc1ccc(/C(C)=N/NC(=O)CNC(=O)/C=C\\c2ccccc2OC)c(OC)c1", "hERG current change (%, negative = inhibition) at 10uM": -25.2}
{"smiles": "N#CCCN(Cc1cccnc1)C(=S)NC(=O)c1ccc(S(=O)(=O)N2CCCC2)cc1", "hERG current change (%, negative = inhibition) at 10uM": 13.8}
{"smiles": "Cc1cc(C)c2nc(NC(=O)[C@@H](NC(=O)c3cccc(S(=O)(=O)N4CCOCC4)c3)C(C)C)sc2c1", "hERG current change (%, negative = inhibition) at 10uM": 10.3}
{"smiles": "O=C(c1cc(O)c(O)c([N+](=O)[O-])c1)c1ccccc1F", "hERG current change (%, negative = inhibition) at 10uM": 2.56}
{"smiles": "CC1CCCC(NC(=O)C2N(CCCN3CCCC3)C(=O)C3C(C(=O)Nc4cccc(Cl)c4)C4C=CC32O4)C1C", "note": "(stereo not drawn)", "hERG current change (%, negative = inhibition) at 10uM": 7.3}
{"smiles": "CSCCC(NS(=O)(=O)c1ccc(Cl)cc1)C(=O)OCc1c(Cl)cccc1Cl", "note": "(stereo not drawn)", "hERG current change (%, negative = inhibition) at 10uM": 6.45}
{"smiles": "CCC(C)Nc1nc(-c2ccc3c(c2)NC(=O)CO3)cs1", "note": "(stereo not drawn)", "hERG current change (%, negative = inhibition) at 10uM": 4.35}
{"smiles": "COc1cc2ccccc2cc1C(=O)Nc1ccc(NC(=O)c2cccs2)cc1", "hERG current change (%, negative = inhibition) at 10uM": 22.9}
{"smiles": "Nc1c(C(=O)Nc2ccc(S(=O)(=O)N3CCCC3)cc2)sc2nc3cc4c(cc3cc12)CCC4", "hERG current change (%, negative = inhibition) at 10uM": 1.65}
{"smiles": "C/C(=N\\NC(=S)Nc1ccc(F)cc1)C1CC1", "hERG current change (%, negative = inhibition) at 10uM": -26.7}
{"smiles": "Cc1ccc(C(=O)N2CC(=O)Nc3ccc(F)cc3C2c2ccccc2)cc1[N+](=O)[O-]", "note": "(stereo not drawn)", "hERG current change (%, negative = inhibition) at 10uM": 13.9}
{"smiles": "COc1cccc(C(=O)Nc2cc3c(cc2Cl)OCCCO3)c1", "hERG current change (%, negative = inhibition) at 10uM": -2.72}
{"smiles": "COCc1c(C(=O)OCC(=O)N(C)C2CCS(=O)(=O)C2)oc2ccccc12", "note": "(stereo not drawn)", "hERG current change (%, negative = inhibition) at 10uM": -1.23}
{"smiles": "CN(C)c1ccc(NC(=S)c2ccc3ccccc3n2)cc1", "hERG current change (%, negative = inhibition) at 10uM": 12.2}
{"smiles": "Cc1ccc(S(=O)(=O)N(C)C)cc1NC(=O)C(C)NC(C)c1cccs1", "note": "(stereo not drawn)", "hERG current change (%, negative = inhibition) at 10uM": -1.77}
{"smiles": "O=C(COc1ccc(Cl)cc1Cl)NNC(=S)Nc1ccc(F)cc1", "hERG current change (%, negative = inhibition) at 10uM": 10.2}
{"smiles": "CN(Cc1ccccc1)C(=S)Nc1ccc(OC(F)F)cc1", "hERG current change (%, negative = inhibition) at 10uM": -21.2}
{"smiles": "CC(=O)c1cnn(-c2cc(Oc3ccccc3C)ncn2)c1C", "hERG current change (%, negative = inhibition) at 10uM": 13.2}
{"smiles": "O=C(CN1CCN(CC(=O)Nc2ccc(OCc3ccccc3)cc2)CC1)Nc1ccc(F)cc1", "hERG current change (%, negative = inhibition) at 10uM": -72.5}
{"smiles": "COC(=O)COc1ccc(S(=O)(=O)Nc2ccc(C(N)=O)cc2)cc1", "hERG current change (%, negative = inhibition) at 10uM": 17.5}
{"smiles": "COc1ccc(C(=O)NCC(C)(C)SCc2c(C)cc(C)cc2C)cc1", "hERG current change (%, negative = inhibition) at 10uM": 15.4}
{"smiles": "Nc1cc(S(=O)(=O)Nc2cc(Cl)ccc2Cl)ccc1N1CCOCC1", "hERG current change (%, negative = inhibition) at 10uM": 17.2}
{"smiles": "Cc1c(N(C(=O)c2cc(=O)[nH]c3ccccc23)C(C)C)c(=O)n(-c2ccccc2)n1C", "hERG current change (%, negative = inhibition) at 10uM": -5.09}
{"smiles": "O=C(CN1CCN(S(=O)(=O)c2ccc(F)cc2)CC1)Nc1ccc(Cl)cn1", "hERG current change (%, negative = inhibition) at 10uM": -62.7}
{"smiles": "COc1ccc2ccccc2c1/C=N/Nc1cccc(C(=O)O)c1", "hERG current change (%, negative = inhibition) at 10uM": 28.9}
{"smiles": "CCOc1ccc(-c2cccc(NC(=O)c3ccc(Br)o3)c2)nn1", "hERG current change (%, negative = inhibition) at 10uM": -47.8}
{"smiles": "O=S(=O)(NCc1ccccc1)c1ccc(Br)s1", "hERG current change (%, negative = inhibition) at 10uM": -11.3}
{"smiles": "COC1=CC(=O)OC12CCCCC2", "hERG current change (%, negative = inhibition) at 10uM": 8.91}
{"smiles": "COc1cc(C(=O)OC2CCOC2=O)cc(Cl)c1OC", "note": "(stereo not drawn)", "hERG current change (%, negative = inhibition) at 10uM": 14.7}
{"smiles": "COc1ccc(/C(=N\\O)c2ncc(C(F)(F)F)cc2Cl)cc1", "hERG current change (%, negative = inhibition) at 10uM": -3.33}
{"smiles": "CCCCCC(=O)Nc1ccc(N2CCN(C(=O)CCC)CC2)cc1", "hERG current change (%, negative = inhibition) at 10uM": -32.8}
{"smiles": "COc1cc(C)c(S(=O)(=O)N2CCN(C)CC2)cc1C", "hERG current change (%, negative = inhibition) at 10uM": 11.2}
{"smiles": "Cc1ccnc(NS(=O)(=O)c2ccc(NS(=O)(=O)Cc3ccccc3)cc2)n1", "hERG current change (%, negative = inhibition) at 10uM": 9.43}
{"smiles": "COc1ccc(CSc2nnnn2-c2ccccc2)cc1", "hERG current change (%, negative = inhibition) at 10uM": -11.7}
{"smiles": "CSC(=NCc1ccco1)NC#N", "hERG current change (%, negative = inhibition) at 10uM": -1.07}
{"smiles": "O=C(Nc1cc(-c2ccccc2)[nH]n1)c1ccccc1", "hERG current change (%, negative = inhibition) at 10uM": -18}
{"smiles": "CCCCCOC(=O)Nc1nnc(CCCCC)s1", "hERG current change (%, negative = inhibition) at 10uM": -21.7}
{"smiles": "CCOC(=O)C1(CCCc2ccccc2)CCN(C(=O)[C@@H]2C[C@@H](C)NC(=S)N2)CC1", "hERG current change (%, negative = inhibition) at 10uM": -25.1}
{"smiles": "COCc1cc(C)nc2sc(C(=O)N3CCN(c4ccccc4)CC3)c(N)c12", "hERG current change (%, negative = inhibition) at 10uM": -22.5}
{"smiles": "CS(=O)(=O)c1ccc2nc(NC(=O)C3CCCCC3)sc2c1", "hERG current change (%, negative = inhibition) at 10uM": 5.15}
{"smiles": "CCCC/C(O)=C1\\C(=O)CC(C)(C)CC1=Nc1ccc(OC)cc1", "hERG current change (%, negative = inhibition) at 10uM": -17.6}
{"smiles": "Cn1cc(S(=O)(=O)N2CCCC2)cc1C(=O)Nc1cccc(C(F)(F)F)c1", "hERG current change (%, negative = inhibition) at 10uM": 17.1}
{"smiles": "Cc1ccc(OCc2nnc(SCc3cc(=O)[nH]c4ccccc34)n2-c2ccccc2)cc1", "hERG current change (%, negative = inhibition) at 10uM": -36.7}
